According to US7629351B2, “N-((1R,2S,5R)-5-(tert-butylamino)-2-((S)-2-oxo-3-(6-(trifluoromethyl)quinazolin-4-ylamino) pyrrolidin-1-yl)cyclohexyl)acetamide and other modulators of chemokine receptor activity, crystalline forms and process” (Bristol-Myers Squibb Company, priority 2006, dated 2009):
Read-outs that look alike come from different tables or passages of the source.

Experiments:
[1] = target: human cardiac sodium channel, SCN5A (Homo sapiens, UniProt Q14524); assay: Sodium channel patch clamp (HEK-293 cells); type: cell-based; conditions: 30,000 nM, read-out: Na+ channel patch clamp (% Inhib.)
Description: The compound was tested at a protein-free aqueous buffer. For determining steady state inhibition, sodium currents were elicited every 5 seconds using the following voltage protocol: cells were held at a potential of −90 mV and stepped to −20 mV for 60 ms. Effects were calculated by measuring inhibition of peak current during the test pulse to −20 mV. Rate-dependence of inhibition was assessed by stimulation at frequencies of 1 Hz and 4 Hz.

hCCR2 KI mice (EAE) = assay: EAE model of multiple sclerosis in hCCR2 KI mice; type: in vivo
hERG [2] = target: T1, hERG (Homo sapiens, UniProt Q12809); assay: hERG patch clamp (HEK-293 cells); conditions: pH 7.4
hCCR2 [3] = target: T2, hCCR2 (Homo sapiens, UniProt P41597); assay: Human peripheral blood mononuclear cell binding (CCR2 Binding), 125I-human MCP-1; design: hPBMCs were isolated from human leukopak (Biological Specialty Inc.) using a standard protocol with Ficoll-Hypaque; endogenous in cells; host or cells: human peripheral blood mononuclear cells (from leukopak, Biological Specialty Inc.); conditions: hPBMCs, (n) in brackets
T2 sequence (P41597 1-360 isoform P41597-2): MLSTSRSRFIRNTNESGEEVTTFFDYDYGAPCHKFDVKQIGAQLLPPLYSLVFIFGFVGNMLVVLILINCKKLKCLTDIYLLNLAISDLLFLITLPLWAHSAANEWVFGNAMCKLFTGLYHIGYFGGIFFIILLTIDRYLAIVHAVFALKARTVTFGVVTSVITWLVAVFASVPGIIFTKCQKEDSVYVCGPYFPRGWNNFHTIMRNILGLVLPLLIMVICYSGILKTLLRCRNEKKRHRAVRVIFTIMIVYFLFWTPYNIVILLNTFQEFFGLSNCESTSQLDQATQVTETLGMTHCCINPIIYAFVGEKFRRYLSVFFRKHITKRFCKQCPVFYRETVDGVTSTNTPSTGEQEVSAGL

CCR2 [4] = target: T3, CCR2 (Homo sapiens, UniProt P41597); assay: In vivo receptor occupancy in blood of hCCR2 KI mice, 48-hour TG peritonitis model (Gaddum equation)
[5] = tested on: mononuclear cell recruitment to the skin; assay: Intradermal MCP-1 challenge model in cynomolgus monkey; type: in vivo; conditions: for Mononuclear cell score / Eos score / PMN score: mean histological score, scale 0 to 4; for Mononuclear cell score: MCP-1 sites; for Eos score: eosinophils; for PMN score: neutrophils; for Total cell score: sum of mean values for each cell type
Description: Intradermal injection of MCP-1 results in the infiltration of mononuclear cells to the injection site. This model was initially developed to assess the inhibitory effect of CCR2 antagonists on the infiltration of mononuclear cells to the skin tissue injected with human MCP-1. The cellular infiltrate can be measured semi-quantitatively by histological scoring.
Immediately after dosing on Day 3, all animals received 2 intradermal injections of 10 μg (50 μL/injection ) of human MCP-1 (R & D Systems) and 2 intradermal injections of its DPBS control (50 μl/injection) at separate sites on the dorsal thorax. Dermal biopsies of all sites were obtained at approximately 18 hours following MCP-1 (or DPBS) challenge. Biopsies were processed for semi-quantitative histological evaluation. Representative sections of skin samples were examined by light microscopy; microscopic lesions and cellular infiltration were noted and their incidences were tabulated.
In addition to biopsy analysis, blood was collected and evaluated for complete blood counts and cell differentials. Also evaluated were plasma samples for compound (and metabolite) concentrations, and serum samples for systemic MCP-1 levels.

CCR2 [6] = target: T3, CCR2; assay: Binding to hCCR2 (cold competition ligand binding, 125I-human MCP-1)
hCCR2 [7] = target: T2, hCCR2
cyno chemotaxis = assay: Cyno chemotaxis assay; type: cell-based, cynomolgus monkey; conditions: Macaca fascicularis
hERG [8] = target: T1, hERG; assay: hERG Flux (Tl+ flux, FLIPR, HEK293 cells); type: cell-based; design: expressed in transfected cells; conditions: HEK293 cells expressing hERG

T1 sequence (Q12809 whole entry): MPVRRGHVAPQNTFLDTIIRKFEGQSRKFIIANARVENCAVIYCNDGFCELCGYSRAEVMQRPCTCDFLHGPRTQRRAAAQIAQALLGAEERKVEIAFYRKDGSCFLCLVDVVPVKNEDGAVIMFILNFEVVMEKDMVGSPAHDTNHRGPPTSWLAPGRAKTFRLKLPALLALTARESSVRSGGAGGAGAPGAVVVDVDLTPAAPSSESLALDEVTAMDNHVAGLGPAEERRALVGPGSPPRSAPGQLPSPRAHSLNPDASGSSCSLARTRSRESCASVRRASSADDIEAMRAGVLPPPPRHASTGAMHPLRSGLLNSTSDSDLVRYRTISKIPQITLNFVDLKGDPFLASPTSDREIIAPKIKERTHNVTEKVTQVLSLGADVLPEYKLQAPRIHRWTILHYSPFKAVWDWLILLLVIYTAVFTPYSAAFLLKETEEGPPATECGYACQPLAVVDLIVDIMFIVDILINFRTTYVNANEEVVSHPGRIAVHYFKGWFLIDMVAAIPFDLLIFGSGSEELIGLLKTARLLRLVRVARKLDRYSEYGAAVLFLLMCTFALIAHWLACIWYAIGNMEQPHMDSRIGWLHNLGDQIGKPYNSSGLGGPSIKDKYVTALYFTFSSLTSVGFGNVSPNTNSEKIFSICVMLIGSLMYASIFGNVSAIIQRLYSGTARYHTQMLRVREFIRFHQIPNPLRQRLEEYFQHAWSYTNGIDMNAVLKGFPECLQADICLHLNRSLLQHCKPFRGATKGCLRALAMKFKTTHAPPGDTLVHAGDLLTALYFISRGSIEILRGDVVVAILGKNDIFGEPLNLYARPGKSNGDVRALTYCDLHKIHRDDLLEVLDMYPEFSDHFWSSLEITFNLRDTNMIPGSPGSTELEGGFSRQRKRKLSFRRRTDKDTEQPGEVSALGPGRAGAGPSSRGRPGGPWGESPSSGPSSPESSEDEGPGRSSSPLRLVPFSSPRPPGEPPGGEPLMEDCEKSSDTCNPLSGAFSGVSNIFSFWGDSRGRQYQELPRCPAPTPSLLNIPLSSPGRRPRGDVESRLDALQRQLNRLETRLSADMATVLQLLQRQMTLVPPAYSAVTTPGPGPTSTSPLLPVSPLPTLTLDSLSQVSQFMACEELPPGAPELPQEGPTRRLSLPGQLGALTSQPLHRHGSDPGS
Sequence of UniProt Q14524 (Q14524 whole entry): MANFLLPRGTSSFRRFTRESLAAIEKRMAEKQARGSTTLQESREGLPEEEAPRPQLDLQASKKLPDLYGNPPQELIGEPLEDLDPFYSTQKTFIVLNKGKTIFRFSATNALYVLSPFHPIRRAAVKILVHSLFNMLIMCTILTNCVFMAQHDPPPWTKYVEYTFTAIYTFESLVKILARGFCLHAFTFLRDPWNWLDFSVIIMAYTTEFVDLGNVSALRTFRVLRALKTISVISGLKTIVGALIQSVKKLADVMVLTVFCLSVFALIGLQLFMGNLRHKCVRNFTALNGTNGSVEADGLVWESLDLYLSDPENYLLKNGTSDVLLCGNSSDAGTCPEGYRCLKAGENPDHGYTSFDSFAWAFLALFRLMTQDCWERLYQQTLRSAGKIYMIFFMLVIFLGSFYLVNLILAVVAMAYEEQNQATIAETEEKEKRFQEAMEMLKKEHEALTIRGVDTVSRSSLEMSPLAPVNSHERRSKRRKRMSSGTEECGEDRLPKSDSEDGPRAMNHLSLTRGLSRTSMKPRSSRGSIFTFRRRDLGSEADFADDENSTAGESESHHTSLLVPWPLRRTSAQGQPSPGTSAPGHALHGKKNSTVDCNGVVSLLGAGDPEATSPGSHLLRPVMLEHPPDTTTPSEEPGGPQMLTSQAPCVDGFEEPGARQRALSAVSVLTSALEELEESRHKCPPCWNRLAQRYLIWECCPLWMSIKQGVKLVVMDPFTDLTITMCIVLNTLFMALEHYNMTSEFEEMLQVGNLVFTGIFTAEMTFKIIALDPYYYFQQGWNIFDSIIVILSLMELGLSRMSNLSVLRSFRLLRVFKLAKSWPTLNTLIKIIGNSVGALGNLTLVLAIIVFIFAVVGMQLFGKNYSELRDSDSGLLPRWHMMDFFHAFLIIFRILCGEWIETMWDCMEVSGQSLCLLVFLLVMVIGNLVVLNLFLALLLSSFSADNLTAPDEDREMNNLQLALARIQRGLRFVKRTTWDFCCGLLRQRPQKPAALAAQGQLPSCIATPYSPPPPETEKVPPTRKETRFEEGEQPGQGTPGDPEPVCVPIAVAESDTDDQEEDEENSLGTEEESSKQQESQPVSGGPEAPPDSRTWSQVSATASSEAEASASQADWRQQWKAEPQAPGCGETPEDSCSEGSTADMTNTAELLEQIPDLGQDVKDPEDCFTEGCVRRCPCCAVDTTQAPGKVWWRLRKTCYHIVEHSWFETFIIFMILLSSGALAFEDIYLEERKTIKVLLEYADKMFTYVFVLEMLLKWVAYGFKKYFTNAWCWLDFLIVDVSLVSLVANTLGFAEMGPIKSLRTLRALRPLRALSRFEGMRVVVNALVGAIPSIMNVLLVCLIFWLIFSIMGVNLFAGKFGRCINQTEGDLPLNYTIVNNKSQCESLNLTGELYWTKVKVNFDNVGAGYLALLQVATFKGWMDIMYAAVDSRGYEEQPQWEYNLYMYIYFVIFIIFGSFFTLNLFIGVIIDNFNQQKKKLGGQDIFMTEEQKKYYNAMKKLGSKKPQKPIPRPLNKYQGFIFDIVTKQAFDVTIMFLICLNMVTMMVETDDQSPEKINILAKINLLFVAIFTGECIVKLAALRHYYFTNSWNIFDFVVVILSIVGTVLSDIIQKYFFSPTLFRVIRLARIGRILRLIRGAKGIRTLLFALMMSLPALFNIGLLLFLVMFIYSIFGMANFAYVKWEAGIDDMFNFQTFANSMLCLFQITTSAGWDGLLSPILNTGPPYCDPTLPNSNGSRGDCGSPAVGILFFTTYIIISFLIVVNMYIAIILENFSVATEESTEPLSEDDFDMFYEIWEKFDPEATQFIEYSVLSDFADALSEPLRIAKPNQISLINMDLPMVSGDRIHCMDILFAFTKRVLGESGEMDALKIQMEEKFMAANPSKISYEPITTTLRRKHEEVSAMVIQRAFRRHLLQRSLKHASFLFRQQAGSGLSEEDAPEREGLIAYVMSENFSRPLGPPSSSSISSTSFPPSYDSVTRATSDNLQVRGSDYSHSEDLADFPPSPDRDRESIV

For CC(=O)N[C@@H]1C[C@H](NC(C)(C)C)CC[C@@H]1N1CC[C@H](Nc2ncnc3ccc(C(F)(F)F)cc23)C1=O [Example 1, N-((1R,2S,5R)-5-(tert-butylamino)-2-((S)-2-oxo-3-(6-(trifluoromethyl)quinazolin-4-ylamino)pyrrolidin-1-yl)cyclohexyl)acetamide], the inhibition at 30000 nM [1] was 29%, the “total inflammatory cellular infiltrate, histological evaluation of the spinal cord versus vehicle” value (hCCR2 KI mice (EAE); Day 22) was “did not demonstrate a significant difference” and the “reduction of area under curve (AUC) of the clinical score” value (hCCR2 KI mice (EAE); both doses, 25 mg/kg and 55 mg/kg BID oral, p<0.05) was 49%. For the same molecule, the “clinical score (FIG. 22)” value (hCCR2 KI mice (EAE); in words) was “reduced clinical score”, the inhibition at 10000 nM (hERG [2]) was 12% and the inhibition at 30000 nM (hERG [2]) was 19%. For the same molecule, the IC50 (hCCR2 [3]) was 2.74 ± 1.34 nM, the “% free CCR2” value (CCR2 [4]; 1 mg/kg) was 48.3% and the “% mouse MCP-1 bound CCR2” value (CCR2 [4]; 1 mg/kg) was 0.26%. The “% of Example 1-bound CCR2” value (CCR2 [4]; 1 mg/kg) was 51.4%, the “% free CCR2” value (CCR2 [4]; 25 mg/kg) was 8.6% and the “% mouse MCP-1 bound CCR2” value (CCR2 [4]; 25 mg/kg) was 0.16%. For the same molecule, the “% of Example 1-bound CCR2” value (CCR2 [4]; 25 mg/kg) was 91.2%, the “% free CCR2” value (CCR2 [4]; 100 mg/kg) was 2.4% and the “% mouse MCP-1 bound CCR2” value (CCR2 [4]; 100 mg/kg) was 0.04%. For the same molecule, the “% of Example 1-bound CCR2” value (CCR2 [4]; 100 mg/kg) was 97.6%, the “Mononuclear cell score (inhibition %)” value ([5]; 5 mg/kg) was “(75%)” and the Mononuclear cell score ([5]; 5 mg/kg) was 0.5. For the same molecule, the Eos score ([5]; 5 mg/kg) was 1.4, the PMN score ([5]; 5 mg/kg) was 0.1 and the Total cell score ([5]; 5 mg/kg) was 2.0. For the same molecule, the “Mononuclear cell score (inhibition %)” value ([5]; 10 mg/kg) was “(95%)”, the Mononuclear cell score ([5]; 10 mg/kg) was 0.1 and the Eos score ([5]; 10 mg/kg) was 0.8. The PMN score ([5]; 10 mg/kg) was 0.1, the Total cell score ([5]; 10 mg/kg) was 1.0 and the “Mononuclear cell score (inhibition %)” value ([5]; 20 mg/kg) was “(95%)”. For the same molecule, the Mononuclear cell score ([5]; 20 mg/kg) was 0.1, the Eos score ([5]; 20 mg/kg) was 0.8 and the PMN score ([5]; 20 mg/kg) was 0. The Total cell score ([5]; 20 mg/kg) was 0.9, the “mononuclear cell recruitment to skin (FIG. 20)” value ([5]; in words) was “inhibited mononuclear cell recruitment to skin” and the Ki (CCR2 [6]) was 1.3 nM. It also gave an IC50 (hCCR2 [7]) of 3.7 nM, an IC50 (cyno chemotaxis) of 7.1 ± 2.7 nM and an IC50 (hERG [8]) of over 80000 nM.
